According to the supplement of paper PMC10126150:
Sequences with one replicate were seen in a single cluster, so their values are uncertain.

System: ATP
Assay: switch fluorescence ratio, 500 uM ATP over buffer (Cy3 cluster intensity, sum of 5 cycles each) (fold (ratio)); higher = stronger signal-on switching upon ATP binding; sequences stand for … in TCGTCGGCAGCGTCAGATGTGTATAAGAGACAGTTTTTTTTTTTTTTTTTTTTTTTTT…TC
Details: aptamer strand: ATP DNA aptamer (quencher-CACCTGGGGGAGTATTGCGGAGGAAGG + anchor), 100 nM annealed; ATP concentration: 500 uM; one replicate
Procedure, shortened: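 Cy3-labelled switching-strand clusters on a modified Illumina MiSeq flow-cell were annealed to 100 nM quencher-labelled ATP aptamer and imaged first in selection buffer, then after 15 min with 500 uM ATP at 22 °C. NaOH stripping and re-annealing separated each of five buffer/ATP cycles, and clusters outside 100-1000 RFU were excluded. The fluorescence ratio sums target-cycle Cy3 intensity over buffer-cycle Cy3 intensity per cluster and averages it per switch-domain sequence.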
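Also: ATP exposure 15 min at 22 °C before imaging.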

Sequence: ATGGAAGTAG
- switch fluorescence ratio: 1.07

Sequence: CGGTCAACGA
- switch fluorescence ratio: 0.991

Sequence: GCCGCAAATA
- switch fluorescence ratio: 4.37

Sequence: AGCCAGGCGT
- switch fluorescence ratio: 1.01

Sequence: CGGGGTTAAC
- switch fluorescence ratio: 0.991

Sequence: GAGAGAAACA
- switch fluorescence ratio: 0.949

Sequence: TTCTCCTTG
- switch fluorescence ratio: 1.03

Sequence: TCATACTACT
- switch fluorescence ratio: 1.07

Sequence: AACTAAGGGG
- switch fluorescence ratio: 1.01

Sequence: CGCATTGTTG
- switch fluorescence ratio: 1.04

Sequence: ATCTACGCAC
- switch fluorescence ratio: 2.26

Sequence: GCCTTTGATT
- switch fluorescence ratio: 0.964

Sequence: AGTTAAGAG
- switch fluorescence ratio: 1.01

Sequence: ATGTCTATCG
- switch fluorescence ratio: 0.996

Sequence: GGTTATAATA
- switch fluorescence ratio: 0.996

Sequence: GCCTGGGGCG
- switch fluorescence ratio: 0.979

Sequence: CCCCATGGGT
- switch fluorescence ratio: 6.17

Sequence: TGTCGTGATT
- switch fluorescence ratio: 1.03

Sequence: TAGCATATTG
- switch fluorescence ratio: 1.01

Sequence: TTACCATCTA
- switch fluorescence ratio: 1.03

Sequence: ATCATAGTTT
- switch fluorescence ratio: 1.02

Sequence: CAAAGGACG
- switch fluorescence ratio: 1.03

Sequence: AGGTAGCTCA
- switch fluorescence ratio: 0.961

Sequence: AACGGGGGAC
- switch fluorescence ratio: 1.09

Sequence: TCGGGGATT
- switch fluorescence ratio: 0.993

Sequence: TCGTCTCTGA
- switch fluorescence ratio: 0.991

Sequence: GACGAGGGTC
- switch fluorescence ratio: 1.02

Sequence: CTGAGGCAG
- switch fluorescence ratio: 1.61

Sequence: CGACTGGAGG
- switch fluorescence ratio: 1.01

Sequence: CTGTACCGGA
- switch fluorescence ratio: 0.947

Sequence: ACTCCTAGGC
- switch fluorescence ratio: 1.48

Sequence: GGAGTAACTG
- switch fluorescence ratio: 1.03

Sequence: AGGTCGTGG
- switch fluorescence ratio: 0.955

Sequence: CCATACTGAG
- switch fluorescence ratio: 0.992

Sequence: GGAGGGTCAT
- switch fluorescence ratio: 1.04

Sequence: TATTTTGCTA
- switch fluorescence ratio: 0.993

Sequence: AATTGTGTTC
- switch fluorescence ratio: 0.975

Sequence: GGACCACTGA
- switch fluorescence ratio: 1.08

Sequence: TGGTTAGAGA
- switch fluorescence ratio: 1.03

Sequence: AAGACAGTT
- switch fluorescence ratio: 1.03

Sequence: TGTTTGATAC
- switch fluorescence ratio: 1.1

Sequence: TAATGACGTG
- switch fluorescence ratio: 0.958

Sequence: AACTGGTACG
- switch fluorescence ratio: 1.06

Sequence: AAAAAGGAAA
- switch fluorescence ratio: 0.999

Sequence: TGGCTATATT
- switch fluorescence ratio: 1.14

Sequence: GGTCGTAAAA
- switch fluorescence ratio: 1.03

Sequence: GACATCCCCC
- switch fluorescence ratio: 1.13

Sequence: ATATTGTTCC
- switch fluorescence ratio: 1.07

Sequence: GACTTGTTAT
- switch fluorescence ratio: 0.99

Sequence: GGTGGGCCCG
- switch fluorescence ratio: 1.5

Sequence: TGATCTATCC
- switch fluorescence ratio: 0.952

Sequence: ATAGAATTTT
- switch fluorescence ratio: 1

Sequence: AGAATCTGAG
- switch fluorescence ratio: 0.976

Sequence: GTTAATGTTT
- switch fluorescence ratio: 1.01

Sequence: GTAATTCTTC
- switch fluorescence ratio: 1

Sequence: TCTAGGTGGC
- switch fluorescence ratio: 1.08

Sequence: CCAAATCTGA
- switch fluorescence ratio: 1.03

Sequence: ATTACCTGGG
- switch fluorescence ratio: 0.986

Sequence: TGGGCTAACT
- switch fluorescence ratio: 1

Sequence: AGGTTACGGC
- switch fluorescence ratio: 1.03

Sequence: AGAGTCTAGC
- switch fluorescence ratio: 0.879

Sequence: CTTCTATTGA
- switch fluorescence ratio: 1.01

Sequence: ACGCGACACA
- switch fluorescence ratio: 1.13

Sequence: AAGCGAGATT
- switch fluorescence ratio: 1.01

Sequence: GCCCTCGACG
- switch fluorescence ratio: 1.03

Sequence: TCATCTAGGC
- switch fluorescence ratio: 1.07

Sequence: CTTCCGACCT
- switch fluorescence ratio: 4.08

Sequence: AGTCTGAATA
- switch fluorescence ratio: 0.959

Sequence: CACGTAGGCA
- switch fluorescence ratio: 1.07

Sequence: GGTACTGATG
- switch fluorescence ratio: 1.02

Sequence: GTGTTCTGCA
- switch fluorescence ratio: 0.988

Sequence: TAGGTACCTT
- switch fluorescence ratio: 0.969

Sequence: GGATCCTACT
- switch fluorescence ratio: 0.999

Sequence: TGCTGTATTA
- switch fluorescence ratio: 0.952

Sequence: TCCGGTCGCA
- switch fluorescence ratio: 2.21

Sequence: GGGACTTTTA
- switch fluorescence ratio: 0.961

Sequence: AACTGGGTAT
- switch fluorescence ratio: 0.959

Sequence: TGGGACTGGT
- switch fluorescence ratio: 0.978

Sequence: TCTGGTTCGG
- switch fluorescence ratio: 0.96

Sequence: ATGTTCTAGC
- switch fluorescence ratio: 1.03

Sequence: TCCTCGTCGC
- switch fluorescence ratio: 2.23

Sequence: GGACCCCGGC
- switch fluorescence ratio: 1.01

Sequence: ATATCGGACA
- switch fluorescence ratio: 1.04

Sequence: AGGTCCTTGA
- switch fluorescence ratio: 0.985

Sequence: GCACGTTTAC
- switch fluorescence ratio: 1.28

Sequence: ATTCGAATCC
- switch fluorescence ratio: 1.3

Sequence: CCGAGTATAT
- switch fluorescence ratio: 2.96

Sequence: AAAGACTCC
- switch fluorescence ratio: 1.33

Sequence: TACCAACGGG
- switch fluorescence ratio: 1.09

Sequence: CTCTTTTGCA
- switch fluorescence ratio: 1.09

Sequence: GCACCTTGGA
- switch fluorescence ratio: 1.03

Sequence: CACAGGATTG
- switch fluorescence ratio: 0.952

Sequence: AAACGGTCTC
- switch fluorescence ratio: 1.01

Sequence: GGGTACGAC
- switch fluorescence ratio: 0.971

Sequence: CGCGTCGAAG
- switch fluorescence ratio: 1

Sequence: GGTTATTTAG
- switch fluorescence ratio: 0.984

Sequence: CACAAAGAGG
- switch fluorescence ratio: 1.03

Sequence: GGGACACGTA
- switch fluorescence ratio: 1.02

Sequence: GGTTATCAAT
- switch fluorescence ratio: 0.99

Sequence: CTAAGAAGAG
- switch fluorescence ratio: 0.985

Sequence: CTGGCTTGTA
- switch fluorescence ratio: 1.01

Sequence: GAAGTACGCA
- switch fluorescence ratio: 1.33

Sequence: CATTGTTTTT
- switch fluorescence ratio: 0.992

Sequence: CCGCGGAATC
- switch fluorescence ratio: 1.19

Sequence: GTTCCGGGCC
- switch fluorescence ratio: 1.05

Sequence: GGCGATCCGC
- switch fluorescence ratio: 1.01

Sequence: ATTAACTCGG
- switch fluorescence ratio: 1.01

Sequence: CGCAGGTTTC
- switch fluorescence ratio: 1.09

Sequence: GACCCCCAAG
- switch fluorescence ratio: 1.04

Sequence: TATCATAAAT
- switch fluorescence ratio: 0.996

Sequence: AGCGTCATCA
- switch fluorescence ratio: 0.984

Sequence: CGTACCTAGG
- switch fluorescence ratio: 1

Sequence: CAGGCCACTC
- switch fluorescence ratio: 1

Sequence: AAGGGTTGCA
- switch fluorescence ratio: 1

Sequence: CGCATCAGAT
- switch fluorescence ratio: 1.01

Sequence: CTAAGGAT
- switch fluorescence ratio: 0.965

Sequence: GAGCATTCAT
- switch fluorescence ratio: 1.01

Sequence: GCTAGGATCA
- switch fluorescence ratio: 0.987

Sequence: TCATATCGGC
- switch fluorescence ratio: 0.974

Sequence: TTCTTGCTGT
- switch fluorescence ratio: 1.01

Sequence: GGACTATTGT
- switch fluorescence ratio: 1

Sequence: GGGAGTAAGA
- switch fluorescence ratio: 0.981

Sequence: TTGGGCAGCG
- switch fluorescence ratio: 1.04

Sequence: TTCCGTAACC
- switch fluorescence ratio: 1.5

Sequence: AAAGGTGAGT
- switch fluorescence ratio: 1.09

Sequence: AGGGAGCA
- switch fluorescence ratio: 1.02

Sequence: GCAGGCTGTG
- switch fluorescence ratio: 1.02

Sequence: TGTGCCATAT
- switch fluorescence ratio: 0.985

Sequence: CACCCACAT
- switch fluorescence ratio: 1.05

Sequence: GCAGGAGCCG
- switch fluorescence ratio: 0.975

Sequence: TAATAACAGC
- switch fluorescence ratio: 0.983

Sequence: GCTGTATCAG
- switch fluorescence ratio: 1.01

Sequence: TAGATTTGTC
- switch fluorescence ratio: 0.924

Sequence: TCTCTGGACG
- switch fluorescence ratio: 1.02

Sequence: TCCTGCCAC
- switch fluorescence ratio: 2.01

Sequence: ACGCCGTTGT
- switch fluorescence ratio: 1.3

Sequence: AATTATGATC
- switch fluorescence ratio: 0.98

Sequence: CCAGTCGGAT
- switch fluorescence ratio: 1.03

Sequence: TTCAGCCTCG
- switch fluorescence ratio: 1.03

Sequence: GAGATTTGCA
- switch fluorescence ratio: 1

Sequence: ATTAGGACAG
- switch fluorescence ratio: 1.01

Sequence: GAATGAAGGG
- switch fluorescence ratio: 1.01

Sequence: GATTTTAACC
- switch fluorescence ratio: 0.98

Sequence: CATTGACGCA
- switch fluorescence ratio: 1.32

Sequence: TCGTTGAAGC
- switch fluorescence ratio: 0.938

Sequence: AAAGGTATTG
- switch fluorescence ratio: 1.04

Sequence: CGTTAGAGCA
- switch fluorescence ratio: 1.01

Sequence: TTGCGGGCGG
- switch fluorescence ratio: 0.989

Sequence: TCTGTGAGAG
- switch fluorescence ratio: 0.993

Sequence: TCAATGGCCG
- switch fluorescence ratio: 0.993

Sequence: TTATGGTGGA
- switch fluorescence ratio: 0.999

Sequence: GAGGGAACTT
- switch fluorescence ratio: 0.995

Sequence: ACGAGGGTTC
- switch fluorescence ratio: 1.06

Sequence: AAGTTGGGA
- switch fluorescence ratio: 1

Sequence: GCATATAGCT
- switch fluorescence ratio: 0.997

Sequence: AAATGGGGTG
- switch fluorescence ratio: 1.01

Sequence: AATTGCCGCA
- switch fluorescence ratio: 1.06
